Among all 44,000 compounds or so, about 340 (0.77%) were called active. Not shown: some 5% with an inconclusive outcome. The call rests on the fitted dose curve; in most records, active means well fitted inhibition curve with a large enough effect; inconclusive means small, poorly fitted or top-dose-only effect; inactive means flat fitted curve, though single readings scatter. The list shows a part of the results.
Assay: Acumen qHTS Assay for Inhibitors of the mTORC1 Signaling Pathway in MEF (Tsc2-/-, p53-/-) Cells: Sytravon; further: nearly all actives have a fitted effect of over 50% in size;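 on activity change, negative = inhibition: plate controls were DMSO for no effect and rapamycin for full effect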
Conditions: phospho-rpS6 immunofluorescence/PI, 24 h; series mostly up to 38.3 µM; activity change, negative = inhibition: at the top concentration
In short: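 Tsc2-/-, p53-/- mouse embryonic fibroblasts (empty-vector line) exposed to compound 24 hrs at 37 C, fixed, immunostained for phospho-rpS6 and counterstained with propidium iodide. Acumen laser scanning gives % positive cells from Alexa 488/PI ratio, thresholded using 7.5 nM rapamycin; PI count gives viability.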
Potency means the concentration at half of the fitted maximal effect.

Activity change, negative = inhibition, inactive:
CC1CCN(C(=O)CN2CCSc3ccc(S(=O)(=O)N(C)C)cc32)CC1 7.26%
COc1ccc(/C=C/c2nc(-c3ccccc3O)n(-c3ccccc3)n2)cc1OC 3.55%
Cc1cc(C)cc(OC(=O)c2cc(-c3ccc4c(c3)OCCO4)on2)c1 1.39%
CCC(=O)N1CCc2cc(S(=O)(=O)NCCC(=O)NC(C)c3ccccc3)ccc21 (centres undefined) -0.591%
CC(=O)c1ccc(NC(=O)C(Cc2ccccc2)NS(=O)(=O)c2ccc3c(c2)CCC(=O)N3)cc1 (centres undefined) 1.53%
COc1ccc(CNC(=O)Cn2nnc(-c3ccc(C(F)(F)F)cc3)n2)cc1 1.72%
COc1ccc(C(=O)c2cn(Cc3ccccc3F)c3cc4c(cc3c2=O)OCO4)cc1 -14.6%
O=c1cc(-c2ccccc2)n2c(SCc3ccc(Cl)cc3)nnc2[nH]1 -0.903%
CC(C)C(=O)NCC(c1ccc2c(c1)OCO2)N1CCN(c2ccccc2F)CC1 (centres undefined) -10.7%
COc1ccc(-n2c3c(cc(-c4nc(-c5ccc(C)cc5)cs4)c2=O)C(=O)CC(C)(C)C3)cc1 -7.98%
COc1ccccc1C(=O)Nc1ccc2oc(-c3cccc(Cl)c3Cl)nc2c1 -1.01%
Cc1sc2c(c1C)c(=O)n(-c1ccc(Cl)cc1)c(=O)n2Cc1cc(=O)n2ccccc2n1 -0.455%
CC1CCCN(C(=O)c2cc3c(=O)n(C)c4ccccc4c3s2)C1 (centres undefined) 3.18%
COc1ccc(C2C(C(N)=O)=C(C)Nc3nc(SCc4ccccc4Cl)nn32)cc1OC (centres undefined) -12.1%
CCOc1ccc(C(=O)NCc2nc3cccnc3n2Cc2ccc(F)cc2)cc1OCC -14%
Cc1ccc(CNC(=O)c2nc(SCc3ccccc3F)ncc2Cl)cc1 3.23%
CCOC(=O)c1ccccc1NC(=O)CSc1nc2ccncc2[nH]1 -13.6%
O=C(NCc1ccco1)c1ccc(Cn2c(SCc3ccc(F)cc3)nc3cccnc32)cc1 -15.1%
CCC(=O)Nc1cc(-c2cccc(C)c2)nn1-c1ccccc1 8.48%
COc1ccc(N2CCN(Cc3nc4c(c(=O)[nH]c(=O)n4C)n3Cc3ccc(Cl)cc3)CC2)cc1 -21.8%
Cc1cccc(-c2nc(SCC(=O)N3CCc4ccccc43)c3c(=O)n(C)c(=O)n(C)c3n2)c1 -6.62%
CCOC(=O)CNc1nc(Oc2ccc(=O)n(C)n2)nc(N(CC)CC)n1 8.64%
CCOc1ccc(-n2c(SCC(=O)N3CCc4ccccc43)nc3c([nH]c4ccccc43)c2=O)cc1 -0.401%
Cc1cccc(-c2nnc(SCc3cc(=O)c4cccc(Cl)c4[nH]3)n2C)c1 1.69%
COc1cccc2c1ncc1c(-c3ccc(C)cc3)nn(-c3cccc([N+](=O)[O-])c3)c12 0%
CCCN(Cc1cccs1)C(=O)Nc1ccc(OCC)cc1 -1.45%
COc1ccc(NC(=O)Cn2c(=O)c(-c3cc(C)ccc3NC(C)=O)nc3ccccc32)c(OC)c1 -0.294%
Cc1ccc(C2CCN(C(=O)c3cnn(-c4cccc(Cl)c4)c3C3CCN(C(=O)OC(C)(C)C)CC3)C2)cc1 (centres undefined) -26.8%
COc1ccc(NC(=O)N(CCC(C)C)C(C)c2cccs2)c(OC)c1 (centres undefined) -14.3%
O=C(COc1ccccc1)NCc1ccc2c(c1)CCN2C(=O)c1ccc(Cl)cc1 -11.5%
Cc1cc(=O)[nH]c2nnc(SCC(=O)Nc3ccc(OC(F)(F)F)cc3)n12 -0.273%
COc1ccc(OC)c(NC(=O)c2cc(-c3ccc(Cl)s3)nc3ccccc23)c1 -2.59%
NCc1nc2cccnc2n1Cc1ccccc1Cl -18.8%
COc1ccccc1CNC(=O)CCc1c(C)nn(-c2ccc(N3CCOCC3)nn2)c1C 2.61%
COc1ccc(NC(=O)CSc2nc3c([nH]c4ccccc43)c(=O)n2-c2ccccc2)c(OC)c1 8.83%
O=C(NCc1ccco1)c1ccc2c(c1)N(Cc1ccccc1)C(=O)c1ccccc1S2(=O)=O -10.7%
COCCNc1ncnc2c1c(-c1ccccc1)cn2-c1ccc(C)c(Cl)c1 10.2%
COc1ccc(-n2ncc3c(NC(C)(C)CO)ncnc32)cc1 6.35%
CCOc1ccc(NC(=O)Cn2c3ncccc3c(=O)n2-c2ccc(CC)cc2)cc1 3.48%
Cc1ccc(CNC(=O)c2oc3c(c2C)-c2nn(Cc4ccc(Cl)cc4)cc2CC3)cc1 2.55%
CCN(CC)S(=O)(=O)c1ccc(NC(=O)NCc2noc3ccc(C)cc23)cc1 -17.7%
Cc1nc2cccnc2n1C1CCN(S(C)(=O)=O)CC1 5.4%
Cc1cc(S(=O)(=O)C(CNC(=O)c2ccc(OC(C)C)cc2)c2cccs2)ccc1F (centres undefined) 5.35%
Cc1ccc(-c2c(CN3CCN(c4cccc(C)c4)C(C)C3)csc2C)cc1 (centres undefined) 4.31%
Cc1ccc2onc(CC(=O)N3CCN(c4ccc(F)cc4)CC3)c2c1 -10.7%
CC(C)CC(=O)N1c2nc(C(C)C)nn2C2(CCCCC2)[C@@H]2CCCC[C@@H]21 -0.144%
Cc1c(Cl)cccc1NC(=O)CSc1ncc2c(n1)-c1ccccc1N(C)S2(=O)=O 2.81%
Cc1cccc(C)c1OCC(=O)Nc1ncn[nH]1 -9.64%
CCN(CC)CCNC(=O)c1c(C)oc2ncnc(N3CCOCC3)c12 -9.4%
CCOc1ccc(CCNC(=O)c2cnc3sc(N(CC)CC)nn3c2=O)cc1OCC -0.971%
COC(=O)c1c(NC(=O)c2cc3ccccc3c(=O)o2)sc2c1CCCC2 -12.6%
COc1ccc(CCNC(=O)c2ccc(Nc3nc4ccccc4n4nnnc34)cc2)cc1OC -0.876%
CC(=O)c1cccc(NC(=O)C(C)n2c(=O)cc(C)c3c(C)nn(-c4ccccc4)c32)c1 (centres undefined) 0%
COc1ccc(NC(=O)Cn2nnc(C(=O)NCCc3ccccc3)c2N)cc1 1.82%
COc1ccccc1NC(=O)N(Cc1nnc2n1CCCCC2)c1ccc(F)cc1 3.87%
COc1ccc(OC)c(CNS(=O)(=O)c2ccc3c(c2)CCCN3C(C)=O)c1 0.594%
O=C(NCCc1ccccc1)c1ccc2c(c1)N(Cc1ccc(F)cc1)C(=O)c1ccccc1S2(=O)=O -1.8%
CC(C)c1ccc(NC(=O)c2cc3sc(Cl)cc3n2C)cc1 -9.04%
Cc1cc(C)cc(NC(=O)N2CCC3(CC2)Oc2ccccc2C(=O)N3Cc2ccccc2F)c1 -1.53%
O=C(CCS(=O)(=O)c1cccc2nonc12)Nc1c(F)cccc1F 2.71%
CC1CCc2c(sc3nc(-c4cc5cc(Br)ccc5oc4=O)[nH]c(=O)c23)C1 (centres undefined) -25.5%
CCOc1ccc(NC(=O)c2c(NCc3cccnc3)sc3c2CCCC3)cc1 -5.9%
COc1ccc(Br)c(C(=O)Nc2cc3c(cc2N2CCOCC2)n(C)c(=O)n3C)c1 -1.19%
O=S(=O)(Nc1ccc(Br)cc1F)c1ccc2nc(-c3ccccc3)[nH]c2c1 0.676%
COc1cccc(N2CCN(C(=O)c3cccc(-n4c(C)nc5cccnc54)c3)CC2)c1 -11.4%
CCOC(=O)c1ccc(CN(Cc2ccc(F)cc2)S(=O)(=O)c2ccc(F)c(C(=O)Nc3ccc(Cl)cc3F)c2)cc1 4.01%
COc1ccc(CCn2c(=O)c3cccnc3n(CC(=O)Nc3ccc(C)c(F)c3)c2=O)cc1OC -10.6%
C=Cc1ccc(Cn2c(C(=O)O)c(CNC3CCCCC3)c3ccc(C)cc32)cc1 -0.998%
COc1ccc(-c2nnc(SCC(=O)Nc3cccc(C(F)(F)F)c3)nc2-c2ccc(OC)cc2)cc1 1.19%
CN1C(=O)Cc2cc(S(=O)(=O)N3CCN(c4ccc(Cl)cc4)CC3)ccc21 -5.68%
CCOC(=O)c1[nH]c2c(c1Cc1ccccc1C)C(=O)CC(c1cc(OC)ccc1OC)C2 (centres undefined) -19%
O=C(COc1ccccc1)NCCc1csc(-c2ccc(Cl)cc2)n1 3.51%
COc1cccc(Cn2c(CNS(=O)(=O)c3ccc(F)c(Cl)c3)nc3cccnc32)c1 -4.03%
O=C(c1ccc2c(c1)OCCO2)N(Cc1cccnc1)c1nc2c(Cl)cccc2s1 0%
CCOc1ccc(OCC)c(NC(=O)C2CCN(S(=O)(=O)c3c(C)noc3/C=C/c3ccccc3F)CC2)c1 -12.2%
CC(C)COc1ccc(C(=O)Nc2cc3nn(-c4ccccc4)nc3cc2Cl)cc1 -1.29%
CCc1nn2c(=O)cc(COc3ccc(/C=C(\C#N)C(=O)Nc4ccc(F)cc4)cc3OC)nc2s1 -20%
O=S(=O)(NCC(c1cccs1)S(=O)(=O)c1ccccc1)c1ccc(F)cc1 (centres undefined) -2.01%
CCOC(=O)c1ccc(NC(=O)C2CCN(S(=O)(=O)c3ccc4c(c3)CCCC(=O)N4)CC2)cc1 -1.6%
CCOc1ccccc1CNC(=O)c1cc(-c2ccc(Cl)s2)nc2ccccc12 -21.7%
CCn1c2ccccc2c2nnc(SCC(=O)Nc3ccccc3OC)nc21 -2.75%
CCc1ccc(NC(=O)Cn2c(=O)n(CCC(=O)N3CCc4ccccc4C3)c(=O)c3ccccc32)cc1 -6.58%
Cc1ccccc1-c1nn2c(=O)cc(CN3CCN(C(=O)/C=C/c4ccccc4)CC3)nc2s1 0.414%
COc1ccc(-c2cc(NCc3ccc(F)cc3)n3cnnc3n2)cc1 2.56%
O=C(Cc1ccccc1)Nc1sc2c(c1C(=O)Nc1ccccc1Cl)CCC2 1.84%
Cc1nn(CC(=O)NCCc2ccc(Cl)cc2)c(=O)c2cc3cc(F)ccc3n12 -3.55%
Cc1ccc(NC(=O)CCc2nnc3n(CC(C)C)c(=O)c4ccccc4n23)cc1C -0.0176%
Cc1ccc(-n2nc3c(N4CCC(C(=O)N5CCCCC5)CC4)nnc(C)c3c2C)cc1 -6.45%
COc1ccc(CNC(=O)Cn2nc(C)c3nn(-c4ccc(Cl)cc4)c(C)c3c2=O)cc1 -0.654%
CCCc1cc(N2CCN(c3cc(Cl)ccc3C)CC2)n2cnnc2n1 -4.6%
Cc1ccc2oc(C(=O)Nc3c(C(=O)Nc4ccccc4)oc4ccccc34)cc(=O)c2c1 3.75%
O=S(=O)(c1ccccc1)c1nnn2c1nc(NCc1cccs1)c1sccc12 1.23%

Potency, active:
CCOC(=O)c1ccc(N2C(=O)c3n[nH]c(C)c3C2c2cccc(Br)c2)cc1 (centres undefined) 16.5 µM
CN(CCCNC(=O)c1cc2c(Cl)nc3ccccc3c2s1)Cc1ccccc1 13.1 µM

— PubChem BioAssay AID493208 (National Center for Advancing Translational Sciences (NCATS), 2011)
